Source: the supplement of paper PMC11417369
± gives the standard deviation of the averaged measurements. This is one part of the list.

tested on: PfAP2-EXP AP2 domain (GST-tagged); test: gcPBM binding intensity (ln(normalized median fluorescence intensity)); higher = stronger DNA binding
Summary of the method: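 Binding intensity is defined as the maximum Masliner-normalised natural-log median intensity across replicate spots for either probe orientation. It was measured on an Agilent 4 × 180k array of primer-extended double-stranded 36-bp intergenic genomic probes and negative controls, to which GST-tagged P. falciparum DNA-binding domains made in E. coli were applied for 1 h in 1× PBS with 1% milk, 0.2 mg/ml BSA, 0.5% salmon testes DNA and 0.03% Triton X-100. Detection was by Alexa488 anti-GST antibody and scanning at 488 nm.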

Row | Sequence | gcPBM binding intensity (ln)
1 | TGGTAACAGCATAGAAAATGGACAAACGAAATATAA [GTGCAC_negctrl_site537] | 9.05 ± 0.56
2 | TATTATCTCTTATGAACACACATTTTTATTTTCAAA [CACACA_site3353] | 8.55 ± 0.49
3 | ATATCGTATATGAGTGGTACTAATATGTAAAAAAAA [XGTACX_site7830] | 8.59 ± 0.36
4 | TTTATGGGTATGTTTACACACATAAAAAAATATATG [CACACA_site5646] | 8.41 ± 0.34
5 | ATATATATGAAAATATGTACATATATATATATATAA [XGTACX_site7550] | 8.66 ± 0.3
6 | AAAGTTATAATACGTACACACCTTATCTTTTTGGCT [CACACA_site6267] | 8.65 ± 0.41
7 | ATATAAGTATTTTGAATGCACTTTCTTTTTTTTTTT | 8.55 ± 0.27
8 | TTATAAAATAATTAATGTACGTTTATGTGTATCGAA [XGTACX_site6117] | 8.48 ± 0.29
9 | ACTGAAAAAAGAAATACACACATTCTGGATCATATA [CACACA_site3860] | 8.32 ± 0.58
10 | AACGATATCTGTACTACACACATTATGTCATCCTAT [CACACA_site5374] | 9.07 ± 0.45
11 | ATTAACACTGAAAAATGTACATATATAAATATAAGC [XGTACX_site8222] | 8.63 ± 0.5
12 | AATATTAAAAACAAAACACACAAAAAAAAATAAACT [CACACA_site6470] | 8.71 ± 0.54
13 | TAAAATAATACAAAATGTACAAAATTTACAAAATGT [XGTACX_site3541] | 8.29 ± 0.28
14 | AATATAGAACAATGTTGTACATATAATAATCTTATA [XGTACX_site4671] | 8.24 ± 0.3
15 | ATGTAAATTAAACATGGTACACATTATACAAAATTA [XGTACX_site5675] | 8.73 ± 0.42
16 | ATTTTGTTCGAAAGGTGTACATATACAAAAATTATG [XGTACX_site957] | 8.87 ± 0.4
17 | TAATAATAAAAATAAACACACATATAGATGTATATA [CACACA_site7360] | 8.25 ± 0.35
18 | ATTGCTTTTCTTTTTGCACACTTATGCATATATATA [CACACA_site2584] | 9.36 ± 0.42
19 | CACTTTTCATATATGACACACAAAAAATTAATAAAA [CACACA_site3639] | 8.59 ± 0.45
20 | TCATTATTATTCCTCACACATATATATATATATATT [CACACA_site4375] | 8.94 ± 0.33
21 | AGCACACCCACAAAAACACACACAAAGGTGTTCTTA [CACACA_site8355] | 8.45 ± 0.58
22 | GCATGTATAATGGTAGTGCATATAATAATATAATAA [GTGCAC_site9548] | 8.79 ± 0.21
23 | ATTGTTATTTATTGTGTGCGCATTAATACATACATA [GTGCAC_site9982] | 8.86 ± 0.2

Row | Sequence | gcPBM binding intensity (ln)
24 | TAATGTTGAGAATTTTGTACATATAGATCAATTTAT [XGTACX_site5426] | 8.31 ± 0.38
25 | ATTTATTATGAACATACACACAAAAAAAAAAAGTAT [CACACA_site2054] | 8.82 ± 0.54
26 | TAACTTTGAAAAGATGGTACACAATAATATATATAT [XGTACX_site8667] | 9.47 ± 0.25
27 | GTATATTTTAATATGACACACATATTATATATATAT [CACACA_site2483] | 9.64 ± 0.17
28 | TGACATAAAAAATATACACACTATAATATATATACT [CACACA_site4898] | 8.4 ± 0.41
29 | AATCAATTAATATTAGCATAAAATTTTATTATTTTG [XGTACX_negctrl_site479] | 8.43 ± 0.36
30 | ATAATATGTATGGTCACACAGACAAGGAAAGAATAA [CACACA_site5164] | 9.1 ± 0.47
31 | TGTATCCATATTTGTTCACACACACCCATATTTATA [CACACA_site9190] | 9.04 ± 0.49
32 | AAAAAAAAAAATAAAGAAATCAAAATTGATGAATAA [GTGCAC_negctrl_site692] | 8.34 ± 0.4
33 | ATATGAACAAAATAAATCTCTTCAAAAATAATGTTC [GTGCAC_negctrl_site2] | 8.25 ± 0.49
34 | TAAATGATTGCATAATGTACATATAATTTTTTTTTT [XGTACX_site1988] | 8.3 ± 0.4
35 | TATATATATTTATGCTGTACCAAATAAGAATAGAAA [XGTACX_site7731] | 8.54 ± 0.39
36 | TATAAATATACACCCACACACATATATATATATATA [CACACA_site3745] | 10.2 ± 0.4
37 | TGTGTAAACATATTCACACACATAAATTCGCATATA [CACACA_site6961] | 8.26 ± 0.33
38 | TATATAAAAAATAAATGTACACATGTAATAATAAAA [XGTACX_site2640] | 8.97 ± 0.36
39 | ACAAAATATACAAAATGTACAAAATTTACAAAATAT [XGTACX_site6466] | 8.51 ± 0.3
40 | AGCACAAGCACAAGCACACATTTATATATAAATACA [CACACA_site4642] | 8.73 ± 0.38
41 | TACCCATGCATTTTTGCACACACATATATATATAAA [CACACA_site1429] | 8.84 ± 0.21
42 | AGACAGCGCACAAACACACAAACACCCACCCACATA [CACACA_site451] | 8.93 ± 0.62
43 | ATTTTTGTACACTTCTTTTTTTTTTTTCTTTTATGT [CACACA_negctrl_site1323] | 8.98 ± 0.35
44 | TACTTACATATAATAACACACAAGAAAAAAATAAAA [CACACA_site1033] | 8.72 ± 0.55
45 | AAAAAAAGAAAAATTGCACACACTTATAAAAATATA [CACACA_site4014] | 8.35 ± 0.42
46 | TTTTGTTATGAGAGGGTGCTAATATTTGGATATAAA | 8.49 ± 0.34

Row | Sequence | gcPBM binding intensity (ln)
47 | AAAAAAAAAAAAAGTAGTACATAATATGTTCCTCCT [XGTACX_site8356] | 8.21 ± 0.17
48 | AGAAATAAGAAATATACACACATATATATATATATA [CACACA_site2808] | 10.2 ± 0.18
49 | TCTTATTAAAATATTTATATAGGTAATCACAATATT [GTGCAC_negctrl_site568] | 8.29 ± 0.39
50 | CCCCCCGTGTTATATACACACATAATCAAATAAAAT [CACACA_site4111] | 10.9 ± 0.078
51 | TATAAAATAAGACATGCATGTTATACATATATATAT [TGCATGCA_site314] | 9.88 ± 0.2
52 | TGAACAATGTATAATTGTACGCAACGAAAATAAAAA [XGTACX_site1559] | 9.01 ± 0.44
53 | ATCATGTTATATATGTGTACATATATATGATATAAT [XGTACX_site991] | 8.37 ± 0.39
54 | ATTATAAATTAAAATACACACATATATACCTAATAT [CACACA_site5541] | 8.47 ± 0.4
55 | AGAATAAAAATACAAGCACACATGTATGAAATATAT [CACACA_site3213] | 8.88 ± 0.5
56 | ATATATAATTACACAAATAAAAAAATAAAATGAAAT [CACACA_negctrl_site1513] | 8.77 ± 0.4
57 | AAAAAATAATAATAATGTACAAATAAAATAAAAACA [XGTACX_site6568] | 8.82 ± 0.47
58 | AAGGAATATGTATATACACACAGGTACATATATATA [CACACA_site441] | 8.655 ± 0.064
59 | ATATATTTTTACCATACACACATATAATAAATATAT [CACACA_site3722] | 8.84 ± 0.19
60 | ATAAAAATTGAAACATGTACACATATTCATTTTATA [XGTACX_site7968] | 8.34 ± 0.3
61 | TCGTGTGAAAATATTACACACATTTACTATAGTATC [CACACA_site7590] | 8.52 ± 0.34
62 | ACATATACAAGACACACACACAACGTTTTAATAAAT [CACACA_site7017] | 8.79 ± 0.49
63 | ATAATAATATTGTGTACACAATAATTTGTCAAATCA [CACACA_site6019] | 8.71 ± 0.2
64 | AAAAAAAAAAAAAAATGTACATATATATATATATAT [XGTACX_site876] | 9.99 ± 0.36
65 | TATTTTTTTCTTACTACACACATATATATGCTTTCC [CACACA_site4058] | 9.04 ± 0.42
66 | AATGGAAAAAAAAAAATAAATACAAATAAATACAAA [GTGCAC_negctrl_site407] | 8.59 ± 0.5
67 | TTATATTATACATACACACCCATATAACATGTTTTT [CACACA_site6539] | 8.8 ± 0.47
68 | TCATTAATATTTCATAGTACAATTTTGTCTAATTGT [XGTACX_site6720] | 8.39 ± 0.3
69 | TTTAAAAAAAAAAAAAAAAAAAAAAAAAAAAATTTG [CACACA_negctrl_site1235] | 7.64 ± 0.51

Row | Sequence | gcPBM binding intensity (ln)
70 | AAAAAAATATATATATATATATATATATTATATATG [GTGCAC_negctrl_site654] | 8.29 ± 0.2
71 | TTTTATTATTTTTGTTGTACAGTATACTGTATGATT [XGTACX_site5359] | 8.94 ± 0.23
72 | TAATTATAGGTATACACACACATACATTTACATAAC [CACACA_site7509] | 8.88 ± 0.25
73 | TCATACATTTTCCTTGCACACATTTATAATTAATGG [CACACA_site4511] | 8.9 ± 0.37
74 | ATATACTATTATGTGTGTACATAATAATTTATTATA [XGTACX_site3776] | 8.21 ± 0.099
75 | AACAAACACAGACACACACACACACTAATATGATTA [CACACA_site8770] | 8.61 ± 0.46
76 | TAAAACAAAAAAAAGATGCACTATTTATTTTATTAT | 8.34 ± 0.28
77 | AAAGATACTTTCCTCAAACACACAAAACTATACAAC [CACACA_site1475] | 8.79 ± 0.45
78 | AATAAAAAGAAACACACACACACACCCATATATATA [CACACA_site3589] | 8.55 ± 0.13
79 | TTATCACATTATTGCACACACATAAAGAAAAAAATA [CACACA_site2841] | 8.82 ± 0.15
80 | ATATAAGAACAAAATTGTACATAAATATTTATATAA [XGTACX_site7404] | 8.54 ± 0.39
81 | AAAAAAAAGGAAAATAAAAATAAAAAAAAATAATAA [XGTACX_negctrl_site601] | 8.53 ± 0.52
82 | TGAGAAAAAAAGAATTGTACATATAAAATATAACAA [XGTACX_site3500] | 8.51 ± 0.46
83 | GAGGATCATCAATTCACACACATAAAAATGAAGTTA [CACACA_site3078] | 8.22 ± 0.49
84 | CAATTTTCTAATGAAACATGCAAAATAAAATTTTAT [TGCATGCA_site13] | 8.54 ± 0.38
85 | TTCTTTTTAATGTCGGTGCAACTCCATAAAAACAAA [GTGCAC_site9488] | 8.78 ± 0.16
86 | TATATAAAATTCTATTGTACATGTTATACGAAAGAA [XGTACX_site5711] | 8.65 ± 0.11
87 | CAACGATACAAAAAAGGTACACATATATATATATAT [XGTACX_site8688] | 10.2 ± 0.47
88 | CAAATACATAGACACACACACATATACATATTTATA [CACACA_site7610] | 8.63 ± 0.43
89 | TATTTGATAAATTATACACACACAATATATATAAAA [CACACA_site8625] | 8.4 ± 0.51
